Results reported in the supplement of paper PMC9151546.
Single values are uncertain, as repeats are few or missing.

What was measured:
[1] = test system: CHO-K1; assay: hypodiploid nuclei frequency (% of nucleated events); higher = more hypodiploid events (aneugenic)
Experimental: (§1)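 Flow-cytometric in vitro micronucleus assay (Litron MicroFlow) in CHO-K1 cells in 96-well plates, 19 concentrations (4.5-200 µM, n=1 per concentration). Without S9, cells were exposed for 24 h and sampled at 48 h. With Aroclor 1254-induced rat liver S9, cells were exposed for 3-4 h and sampled at 27-28 h. Read-outs are %MN and %hypodiploid nuclei relative to nucleated events, and relative survival as the nuclei-to-bead ratio versus the 1% DMSO vehicle control (x100).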

[2] = test system: CHO-K1; assay: relative survival (nuclei to bead ratio vs DMSO control) (% of vehicle control); higher = more surviving cells
Experimental: as §1

[3] = test system: CHO-K1; assay: micronucleus frequency (% of nucleated events); higher = more micronuclei (genotoxic)
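Throughout, for hypodiploid nuclei frequency (% of nucleated events): hypodiploid nuclei gated on a flow cytometer with 488 nm excitation after SYTOX Green staining, cultures at 37 °C, positive controls vinblastine without S9 and cyclophosphamide with S9.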
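Throughout, for micronucleus frequency (% of nucleated events): cells lysed with nuclei stained by SYTOX Green, then micronucleus-gated events counted against nucleated events by flow cytometry with 488 nm excitation.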
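Throughout, for relative survival (nuclei to bead ratio vs DMSO control): Lysed-cell nuclei stained with SYTOX Green and counted against counting beads by flow cytometry at 488 nm excitation, with vinblastine (no S9) and cyclophosphamide (plus S9) as positive controls.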

O=c1c(-c2ccc(O)cc2)coc2cc(O)cc(O)c12 [Genistein]
Details	hypodiploid nuclei frequency, [1] [%]	micronucleus frequency, [3] [%]	relative survival, [2]
concentration: 4.5 (µM), S9 metabolic activation: with S9, exposure time: 3-4 hours	0.18	1.68	101
concentration: 4.5 (µM), S9 metabolic activation: without S9, exposure time: 24 hours	0.6	2.66	130
concentration: 5.63 (µM), S9 metabolic activation: with S9, exposure time: 3-4 hours	0.26	1.76	110
concentration: 5.63 (µM), S9 metabolic activation: without S9, exposure time: 24 hours	0.86	2.52	93.2
concentration: 7.04 (µM), S9 metabolic activation: with S9, exposure time: 3-4 hours	0.2	1.6	109
concentration: 7.04 (µM), S9 metabolic activation: without S9, exposure time: 24 hours	0.58	2.26	98.7
concentration: 8.8 (µM), S9 metabolic activation: with S9, exposure time: 3-4 hours	0.32	1.82	103
concentration: 8.8 (µM), S9 metabolic activation: without S9, exposure time: 24 hours	0.78	2.56	97.1
concentration: 11 (µM), S9 metabolic activation: with S9, exposure time: 3-4 hours	0.3	2.26	109
concentration: 11 (µM), S9 metabolic activation: without S9, exposure time: 24 hours	0.68	2.78	93.9
concentration: 13.7 (µM), S9 metabolic activation: with S9, exposure time: 3-4 hours	0.66	3.78	86.9
concentration: 13.7 (µM), S9 metabolic activation: without S9, exposure time: 24 hours	0.84	5.02	76.2
concentration: 17.2 (µM), S9 metabolic activation: with S9, exposure time: 3-4 hours	1.48	7.84	67.1
concentration: 17.2 (µM), S9 metabolic activation: without S9, exposure time: 24 hours	0.74	4.14	79.9
concentration: 21.5 (µM), S9 metabolic activation: with S9, exposure time: 3-4 hours	1.47	10.3	64.1
concentration: 21.5 (µM), S9 metabolic activation: without S9, exposure time: 24 hours	0.82	4.56	74.8
concentration: 26.8 (µM), S9 metabolic activation: with S9, exposure time: 3-4 hours	–	–	33
concentration: 26.8 (µM), S9 metabolic activation: without S9, exposure time: 24 hours	0.52	5.34	70.4
concentration: 33.6 (µM), S9 metabolic activation: with S9, exposure time: 3-4 hours	–	–	28.1
concentration: 33.6 (µM), S9 metabolic activation: without S9, exposure time: 24 hours	0.48	9.42	79.9
concentration: 41.9 (µM), S9 metabolic activation: with S9, exposure time: 3-4 hours	–	–	14.6
concentration: 41.9 (µM), S9 metabolic activation: without S9, exposure time: 24 hours	0.5	11.7	55.9
concentration: 52.4 (µM), S9 metabolic activation: with S9, exposure time: 3-4 hours	–	–	11.1
concentration: 52.4 (µM), S9 metabolic activation: without S9, exposure time: 24 hours	0.66	14.1	52.5
concentration: 65.5 (µM), S9 metabolic activation: with S9, exposure time: 3-4 hours	–	–	12.6
concentration: 65.5 (µM), S9 metabolic activation: without S9, exposure time: 24 hours	0.39	11.8	40.5
concentration: 81.9 (µM), S9 metabolic activation: with S9, exposure time: 3-4 hours	–	–	9.21
concentration: 81.9 (µM), S9 metabolic activation: without S9, exposure time: 24 hours	0.57	8.01	41.3
concentration: 102 (µM), S9 metabolic activation: with S9, exposure time: 3-4 hours	–	–	10.3
concentration: 102 (µM), S9 metabolic activation: without S9, exposure time: 24 hours	0.38	5.35	48.1
concentration: 128 (µM), S9 metabolic activation: with S9, exposure time: 3-4 hours	–	–	7.86
concentration: 128 (µM), S9 metabolic activation: without S9, exposure time: 24 hours	–	–	33.4
concentration: 160 (µM), S9 metabolic activation: with S9, exposure time: 3-4 hours	–	–	9.73
concentration: 160 (µM), S9 metabolic activation: without S9, exposure time: 24 hours	–	–	30.4
concentration: 200 (µM), S9 metabolic activation: with S9, exposure time: 3-4 hours	–	–	11.5
concentration: 200 (µM), S9 metabolic activation: without S9, exposure time: 24 hours	–	–	34

CSC(C)(C)/C=N/O [Aldicarb oxime]
Details	hypodiploid nuclei frequency, [1] [%]	micronucleus frequency, [3] [%]	relative survival, [2]
concentration: 4.5 (µM), S9 metabolic activation: with S9, exposure time: 3-4 hours	0.22	1.66	138
concentration: 4.5 (µM), S9 metabolic activation: without S9, exposure time: 24 hours	0.54	1.42	173
concentration: 5.63 (µM), S9 metabolic activation: with S9, exposure time: 3-4 hours	0.2	1.3	96.8
concentration: 5.63 (µM), S9 metabolic activation: without S9, exposure time: 24 hours	0.36	1.7	170
concentration: 7.04 (µM), S9 metabolic activation: with S9, exposure time: 3-4 hours	0.32	1.02	121
concentration: 7.04 (µM), S9 metabolic activation: without S9, exposure time: 24 hours	0.44	1.12	130
concentration: 8.8 (µM), S9 metabolic activation: with S9, exposure time: 3-4 hours	0.22	1.1	106
concentration: 8.8 (µM), S9 metabolic activation: without S9, exposure time: 24 hours	0.4	1.06	154
concentration: 11 (µM), S9 metabolic activation: with S9, exposure time: 3-4 hours	0.22	1.16	112
concentration: 11 (µM), S9 metabolic activation: without S9, exposure time: 24 hours	0.36	1.08	140
concentration: 13.7 (µM), S9 metabolic activation: with S9, exposure time: 3-4 hours	0.24	1.04	130
concentration: 13.7 (µM), S9 metabolic activation: without S9, exposure time: 24 hours	0.2	1.12	117
concentration: 17.2 (µM), S9 metabolic activation: with S9, exposure time: 3-4 hours	0.4	1.38	144
concentration: 17.2 (µM), S9 metabolic activation: without S9, exposure time: 24 hours	0.3	1.14	147
concentration: 21.5 (µM), S9 metabolic activation: with S9, exposure time: 3-4 hours	0.26	1.28	122
concentration: 21.5 (µM), S9 metabolic activation: without S9, exposure time: 24 hours	0.56	1.18	115
concentration: 26.8 (µM), S9 metabolic activation: with S9, exposure time: 3-4 hours	0.24	1.12	125
concentration: 26.8 (µM), S9 metabolic activation: without S9, exposure time: 24 hours	0.56	1.18	153
concentration: 33.6 (µM), S9 metabolic activation: with S9, exposure time: 3-4 hours	0.48	1.66	109
concentration: 33.6 (µM), S9 metabolic activation: without S9, exposure time: 24 hours	0.4	0.96	139
concentration: 41.9 (µM), S9 metabolic activation: with S9, exposure time: 3-4 hours	0.22	1.22	144
concentration: 41.9 (µM), S9 metabolic activation: without S9, exposure time: 24 hours	0.82	1.3	186
concentration: 52.4 (µM), S9 metabolic activation: with S9, exposure time: 3-4 hours	0.32	1.02	110
concentration: 52.4 (µM), S9 metabolic activation: without S9, exposure time: 24 hours	0.6	1.4	145
concentration: 65.5 (µM), S9 metabolic activation: with S9, exposure time: 3-4 hours	0.34	0.74	132
concentration: 65.5 (µM), S9 metabolic activation: without S9, exposure time: 24 hours	0.6	1.52	108
concentration: 81.9 (µM), S9 metabolic activation: with S9, exposure time: 3-4 hours	0.32	1.18	109
concentration: 81.9 (µM), S9 metabolic activation: without S9, exposure time: 24 hours	0.72	1.4	135
concentration: 102 (µM), S9 metabolic activation: with S9, exposure time: 3-4 hours	0.26	1.52	111
concentration: 102 (µM), S9 metabolic activation: without S9, exposure time: 24 hours	0.56	1.3	113
concentration: 128 (µM), S9 metabolic activation: with S9, exposure time: 3-4 hours	0.26	1.14	115
concentration: 128 (µM), S9 metabolic activation: without S9, exposure time: 24 hours	0.64	1.48	136
concentration: 160 (µM), S9 metabolic activation: with S9, exposure time: 3-4 hours	0.2	1.88	109
concentration: 160 (µM), S9 metabolic activation: without S9, exposure time: 24 hours	0.8	1.7	167
concentration: 200 (µM), S9 metabolic activation: with S9, exposure time: 3-4 hours	0.3	1.34	127
concentration: 200 (µM), S9 metabolic activation: without S9, exposure time: 24 hours	1	2.22	124
